# From PubChem BioAssay AID1508642 (National Center for Advancing Translational Sciences (NCATS), 2021)
# About 200 (0.47%) of roughly 43,000 compounds were called active. Roughly 12% stayed inconclusive and do not appear here. The call rests on the fitted dose curve; in most records, active means well fitted cell-killing curve with a large enough effect; inconclusive means small, poorly fitted or top-dose-only effect, or effect the other way; inactive means flat fitted curve, though single readings scatter. This is one part of the list.
# Assay: Cell viability qHTS assay in S16 Pmp22-F2sN cells; further: nearly all actives have a fitted effect of over 65% in size
# Settings: S16 Pmp22-F2sN Schwann cells viability, CellTiter-Glo, 24 h; series mostly up to 57.5 µM; activity change, negative = cytotoxicity: at the top concentration
# How it was run: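 S16 Pmp22-F2sN Schwann cells (500-1,000/well) in phenol-red-free DMEM with 10% FBS received 23 nL compound by pin tool for 24 h at 37 °C. Viability was then read as CellTiter-Glo luminescence after 15 min at room temperature.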
# On the % scale 0 is the no-effect control and ±100 the full control effect.
row,SMILES,"activity change, negative = cytotoxicity"
1,COCCCNC(=O)c1sc2nc(C)c(C(=O)Nc3ccc(Cl)cc3)c(-c3ccc(Br)cc3)c2c1N,inactive: -1.01%
2,CC1N=C2c3ccccc3N=C(SCC(=O)NCc3ccc(Cl)cc3)N2C1=O (stereo not given),inactive: 1.05%
3,COc1cccc(NC(=O)CSc2cc(C)[nH]c(=O)n2)c1,inactive: 9.07%
4,CCN(CC)c1nn2c(=O)c(C(=O)NCc3cccc(OC)c3OC)cnc2s1,inactive: 3.05%
5,COc1ccc(CNC(=O)c2cnn(-c3ccc(OC)cc3)c2C2CCN(C(=O)OC(C)(C)C)CC2)cc1,inactive: -13.5%
6,Cc1nc(SCC(=O)Nc2ccccc2Cl)cc(-c2ccccc2)n1,inactive: 13.5%
7,Cc1c2cnn(-c3ccccc3)c(=O)c2c(C)n1CC(=O)N1CCN(c2cccc(Cl)c2)CC1,inactive: -11.8%
8,COc1cccc(-c2n[nH]c3c2C(c2cccc(O)c2)N(C)C3=O)c1 (stereo not given),inactive: -22.4%
9,CCS(=O)(=O)N1CC(=O)N(c2cccc(C)c2C)C(C)(C(=O)NC2CCCCCC2)C1 (stereo not given),inactive: -4.43%
10,CCOc1ccc(NC(=O)Cn2cc(C(=O)c3ccc(C)c(C)c3)c(=O)c3cc(F)ccc32)cc1,inactive: 9.12%
11,Cc1ccc(Cl)cc1NC(=O)Cn1c(=O)n(CCC(=O)N2CCc3ccccc3C2)c(=O)c2ccccc21,inactive: -7.72%
12,Cc1ccc(CNC(=O)c2ccc3c(c2)N(Cc2cccc(Cl)c2)C(=O)CS3)cc1,inactive: 6.66%
13,Cc1cc(O)c(C(=O)c2cnc3c(c2)COc2ccccc2-3)cc1Cl,inactive: 16.4%
14,CCN(c1ccc(C)cc1C)S(=O)(=O)c1nnc(NC(=O)CC(C)C)s1,inactive: -3.47%
15,COc1cc(NC(=O)CSc2nc3nc(C)c(Cc4ccccc4)c(C)n3n2)cc(OC)c1,inactive: 12.3%
16,CCOc1ccc2nc(N3CCCC(C(=O)NCCc4ccc(SC)cc4)C3)sc2c1 (stereo not given),inactive: -10.8%
17,Cc1cc(C)cc(OCC(=O)Nc2cccc(-c3nc4ccccc4[nH]3)c2)c1,inactive: -6.01%
18,O=C(Cn1c(=O)n(-c2ccc(F)cc2)c(=O)c2sccc21)Nc1cccc(C(F)(F)F)c1,inactive: -27.9%
19,COc1ccc(-n2nc3c(c2NC(=O)C(=O)N2CCN(C)CC2)CSC3)cc1,inactive: -2.52%
20,CCOC(=O)c1cc2c(=O)n3ccccc3nc2n(Cc2ccco2)c1=NC(=O)c1ccccc1OC,inactive: -14.6%

row,SMILES,"activity change, negative = cytotoxicity"
1,Cc1ccc(NC(=O)C2CCCN(c3nnc(C)c4c(C)n(-c5ccccc5)nc34)C2)cc1Cl (stereo not given),inactive: 0.136%
2,Cc1c2cnn(CC(=O)Nc3ccc(F)cc3F)c(=O)c2c(C)n1Cc1cccc(Cl)c1,inactive: 3.21%
3,CCC(=O)N1CCc2cc(S(=O)(=O)CCC(=O)NCc3ccc(F)cc3)ccc21,inactive: -2.14%
4,CC(C)NC(=O)c1cc2c(Cl)nc3ccccc3c2s1,inactive: 6.46%
5,Cc1ccc(-n2nc3c(=O)n(C(C)C(=O)O)nc(C)c3c2C)cc1 (stereo not given),inactive: 19.7%
6,COc1cccc(CNC(=O)Cn2c(=O)oc3cc(S(=O)(=O)N4CCC(C)CC4)ccc32)c1,inactive: -19.1%
7,Cc1ccc(-n2nc(CO)c(C(=O)NCCc3ccccc3)n2)cc1C,inactive: 5.13%
8,CCc1ccc(N2C(=O)CS(=O)(=O)C23C(=O)N(Cc2ccccc2)c2ccccc23)cc1 (stereo not given),inactive: -1.75%
9,COc1cc(-c2noc(-c3nnn(-c4ccc(Cl)cc4)c3C)n2)cc(OC)c1OC,inactive: 3.49%
10,CCc1cccc(C)c1Nc1c(-c2ccc(N3CCOCC3)cc2)nc2ncccn12,inactive: -2.34%
11,CC(=O)c1ccc(NC(=O)C2CCCN(S(=O)(=O)c3cn(C)cn3)C2)cc1 (stereo not given),inactive: 5.62%
12,CCOC(=O)C1CCCN(C(=O)c2cc3c(=O)n(C)c4ccccc4c3s2)C1 (stereo not given),inactive: 3.04%
13,Cc1c(CNC(C)c2ccccc2)c(C(=O)O)c(C)n1Cc1c(F)cccc1Cl (stereo not given),inactive: -0.576%
14,COC(=O)c1cc2sccc2n1Cc1ccccc1,inactive: -1.84%
15,CC1=C(C(=O)Nc2ccccc2Cl)C(c2cccs2)n2ncnc2N1 (stereo not given),inactive: -1.77%
16,O=C(CCC1N=C2c3ccccc3N=C(SCc3cccc(F)c3)N2C1=O)NC1CCCCC1 (stereo not given),inactive: 5.27%
17,Cc1ccc(SCC(=O)Nc2cccc(-c3nc4cc(Cl)ccc4o3)c2C)cc1,inactive: 0.727%
18,CCn1cc2nc(SCc3cccc(OC)c3)n(Cc3ccc(Cl)cc3)c(=O)c2n1,inactive: -6.17%
19,CCCOc1ccc(CNC(=O)C2CCN(c3nc4ccccc4nc3C(F)(F)F)CC2)cc1,inactive: -2.84%
20,Cc1cc(NS(=O)(=O)c2ccc(NC(=O)COc3c(C)cc(Br)cc3C)cc2)no1,inactive: -1.46%

row,SMILES,"activity change, negative = cytotoxicity"
1,O=S(=O)(NCc1ccccc1)c1ccc2[nH]c3c(c2c1)CCCCC3,inactive: -5.2%
2,COc1cccc(NS(=O)(=O)c2ccc3[nH]cc(C(=O)NC4CCCCC4)c(=O)c3c2)c1,inactive: -7.51%
3,COc1ccc(Cl)cc1NC(=O)CN1c2ccccc2S(=O)(=O)c2ccccc21,inactive: 6.25%
4,O=C(CSC1=Nc2ccccc2N=C(c2ccc(F)cc2)C1)Nc1cc(F)ccc1F,inactive: 14%
5,O=C(NC1CC(=O)N(c2cccc(F)c2)C1)C1CCCCC1 (stereo not given),inactive: 8.48%
6,COc1ccc(N2C(=O)C(CC(=O)Nc3ccc(F)cc3)N(CCC3=CCCCC3)C2=O)cc1 (stereo not given),inactive: -10.2%
7,COc1ccccc1CCNC(=O)Cc1c(C)c2c(cc(C)c3c(C)coc32)oc1=O,inactive: 4.02%
8,CN(C(=O)Nc1cn(C)c(=O)c2ccccc12)c1ccccc1,inactive: 6.92%
9,COCCCNC(=O)c1c(NC(=O)c2cc(=O)c3cc(C)c(C)cc3o2)sc2c1CCCC2,inactive: -3.94%
10,COc1ccccc1CCNC(=O)c1cc2ccccn2n1,inactive: -3.92%
11,CCCN1C(=O)CN(C2CCCCCC2)C(=O)C1c1ccc(OCC)c(OC)c1 (stereo not given),inactive: -1.49%
12,COc1cccc(CNC(=O)CCC(=O)N2CC3CCCN3c3ccccc32)c1 (stereo not given),inactive: 9.2%
13,Cc1ccccc1NC(=O)CN(C)S(=O)(=O)c1cccc2nsnc12,inactive: 12.8%
14,O=C(Nc1ccccc1C(=O)O)c1cccc(S(=O)(=O)N2CCCC2)c1,inactive: 3.66%
15,O=C(NCc1ccc(F)cc1)C1CCN(C(=O)c2cnn(-c3ccccc3)c2-n2cccc2)CC1,inactive: -13.2%
16,CCCCN(CC)CCCNC(=O)c1cn(C)c2ccc(S(=O)(=O)N(C)C3CCCCC3)cc2c1=O,inactive: -2.6%
17,CCOc1cc(C(=O)NCc2ccc3c(c2)CCN3C(=O)CC)cc(OCC)c1OCC,inactive: -1.4%
18,COc1ccc(-c2[nH]ncc2C(=O)NCc2ccc(F)cc2)cc1,inactive: 0.0672%
19,Cc1ccc(C(=O)N2CCN(c3ccccc3F)CC2)cc1NC(=O)c1nsc2ccccc12,inactive: 2.38%
20,CCc1cccc(NC(=O)Cn2c(=O)n(CC3CCC(C(=O)NCCc4ccccc4)CC3)c(=O)c3ccccc32)c1 (stereo not given),inactive: -1.6%
